Source: PubChem BioAssay (Tox21)
Where “and” joins values, the source holds several entries; their conditions need not be identical. Equal entries are not always repeated. This list was built around the results that the source calls inconclusive (neither active nor inactive); the mix of calls is not that of the screen. Potencies of inconclusive entries are doubtful fits and often do not repeat. Calls of active or inactive are those of the source. Calls follow the shape of the dose curve; as a rule, active = well fitted curve in the direction sought with a large enough effect in the repeat runs; inconclusive = weak or mixed curves; inactive = no such curve, though single readings can be large; an effect the other way counts as inactive or inconclusive.

Key:
[1] = Caspase-3/7 induction in CHO-K1 cells by small molecules, qHTS cell viability counter screen (AID 1346979); conditions: CellTiter-Fluor fluorescence, 17 h; series mostly up to 92.4 µM; also: nearly all actives have a fitted effect of over 35% in size
Procedure, shortened: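 Cells (CHO-K1, wild type) are plated at 1,500 per well and incubated 5hr. Test compounds in DMSO are then pinned in, followed by 16hr at 37C and 5% CO2. Viability is read by CellTiter-Fluor fluorescence after 1hr.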

[2] = biological target: Cytochrome P450 2D6 (Homo sapiens) (UniProt P10635); test: Cytochrome P450 Family 2 Subfamily D Member 6 (CYP2D6) small molecule antagonists: luciferase reporter qHTS assay (AID 1671196); conditions: P450-Glo CYP2D6 enzyme assay, luciferin luminescence, 1 h; series mostly up to 115 µM; also: nearly all actives have a fitted effect of over 50% in size
UniProt P10635, sequence (P10635 whole entry, looked up): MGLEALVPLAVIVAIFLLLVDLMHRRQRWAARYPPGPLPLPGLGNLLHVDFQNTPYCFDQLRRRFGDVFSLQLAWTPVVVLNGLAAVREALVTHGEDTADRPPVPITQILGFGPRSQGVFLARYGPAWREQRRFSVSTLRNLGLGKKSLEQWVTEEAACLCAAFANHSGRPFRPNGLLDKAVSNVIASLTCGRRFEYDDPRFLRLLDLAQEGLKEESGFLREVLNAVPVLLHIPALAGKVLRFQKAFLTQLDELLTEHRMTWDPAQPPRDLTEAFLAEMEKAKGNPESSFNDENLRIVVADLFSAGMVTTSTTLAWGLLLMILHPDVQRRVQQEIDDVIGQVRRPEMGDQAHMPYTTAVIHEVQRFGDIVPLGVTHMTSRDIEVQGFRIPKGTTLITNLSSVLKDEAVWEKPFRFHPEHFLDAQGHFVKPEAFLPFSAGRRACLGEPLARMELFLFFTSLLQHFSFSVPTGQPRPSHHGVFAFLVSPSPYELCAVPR
Procedure, shortened: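 Cell-free P450-Glo system: CYP2D6 with proluciferin substrate was pre-incubated with compound for 10 min, then reacted with NADPH regeneration for 1 h at room temperature. Luciferin product was detected after 20 min, and data were reported as relative luminescence units.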

[3] = biological target: Cytochrome P450 2C9 (Homo sapiens) (UniProt P11712); test: Cytochrome P450 Family 2 Subfamily C Member 9 (CYP2C9) small molecule antagonists: luciferase reporter qHTS assay (AID 1671198); conditions: P450-Glo CYP2C9 enzyme assay, luciferin luminescence; series mostly up to 115 µM; also: nearly all actives have a fitted effect of over 50% in size
UniProt P11712, sequence (P11712 whole entry, looked up): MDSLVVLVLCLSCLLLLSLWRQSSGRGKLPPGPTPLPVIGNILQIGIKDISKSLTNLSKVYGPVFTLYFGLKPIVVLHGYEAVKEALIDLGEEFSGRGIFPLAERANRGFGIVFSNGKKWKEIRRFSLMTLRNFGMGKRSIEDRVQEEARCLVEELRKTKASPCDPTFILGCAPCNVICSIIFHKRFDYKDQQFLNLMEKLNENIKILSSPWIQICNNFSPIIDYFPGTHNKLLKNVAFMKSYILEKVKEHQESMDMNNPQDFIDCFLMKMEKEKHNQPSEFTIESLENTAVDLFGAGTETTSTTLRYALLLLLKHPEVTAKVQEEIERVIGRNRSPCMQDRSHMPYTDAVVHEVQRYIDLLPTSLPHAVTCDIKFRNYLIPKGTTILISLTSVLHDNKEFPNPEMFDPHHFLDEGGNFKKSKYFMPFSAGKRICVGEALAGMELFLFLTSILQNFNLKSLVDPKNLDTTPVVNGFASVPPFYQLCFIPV
Procedure, shortened: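 Enzyme-substrate mix preincubated with compound 10 min at room temperature; reaction started with NADPH regeneration solution, 1 h 37C. Luminescent luciferin product read after 20 min detection reagent.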

[4] = biological target: Cytochrome P450 1A2 (Homo sapiens) (UniProt P05177); test: Cytochrome P450 Family 1 Subfamily A Member 2 (CYP1A2) small molecule antagonists: luciferase reporter qHTS assay (AID 1671199); conditions: P450-Glo CYP1A2 enzyme, luciferin luminescence, 1 h; series mostly up to 115 µM; also: nearly all actives have a fitted effect of over 50% in size
UniProt P05177, sequence (P05177 whole entry, looked up): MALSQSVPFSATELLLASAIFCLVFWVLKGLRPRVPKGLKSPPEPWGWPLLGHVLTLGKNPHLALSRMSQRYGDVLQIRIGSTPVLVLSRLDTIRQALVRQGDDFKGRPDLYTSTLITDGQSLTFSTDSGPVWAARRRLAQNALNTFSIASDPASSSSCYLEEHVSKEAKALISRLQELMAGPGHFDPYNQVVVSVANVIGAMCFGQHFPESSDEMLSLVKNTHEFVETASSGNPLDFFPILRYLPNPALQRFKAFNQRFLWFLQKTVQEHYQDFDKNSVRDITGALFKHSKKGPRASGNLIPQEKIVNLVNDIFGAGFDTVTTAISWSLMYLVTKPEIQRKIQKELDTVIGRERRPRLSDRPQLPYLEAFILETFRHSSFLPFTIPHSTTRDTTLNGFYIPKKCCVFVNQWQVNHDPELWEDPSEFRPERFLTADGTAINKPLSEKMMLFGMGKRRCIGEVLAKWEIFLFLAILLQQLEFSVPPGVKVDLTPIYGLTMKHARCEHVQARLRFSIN
Procedure, shortened: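 P450-Glo CYP1A2 enzyme–proluciferin substrate mix with compound 10 min at room temperature, then NADPH regeneration 1 h at room temperature. Luciferin detection reagent added, luminescence read after 20 min; furafylline positive control.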

[5] = biological target: Cytochrome P450 2C19 (Homo sapiens) (UniProt P33261); test: Cytochrome P450 Family 2 Subfamily C Member 19 (CYP2C19) small molecule antagonists: luciferase reporter qHTS assay (AID 1671197); conditions: P450-Glo CYP2C19 enzyme, luciferin luminescence, 1 h; series mostly up to 115 µM; also: nearly all actives have a fitted effect of over 65% in size
UniProt P33261, sequence (P33261 whole entry, looked up): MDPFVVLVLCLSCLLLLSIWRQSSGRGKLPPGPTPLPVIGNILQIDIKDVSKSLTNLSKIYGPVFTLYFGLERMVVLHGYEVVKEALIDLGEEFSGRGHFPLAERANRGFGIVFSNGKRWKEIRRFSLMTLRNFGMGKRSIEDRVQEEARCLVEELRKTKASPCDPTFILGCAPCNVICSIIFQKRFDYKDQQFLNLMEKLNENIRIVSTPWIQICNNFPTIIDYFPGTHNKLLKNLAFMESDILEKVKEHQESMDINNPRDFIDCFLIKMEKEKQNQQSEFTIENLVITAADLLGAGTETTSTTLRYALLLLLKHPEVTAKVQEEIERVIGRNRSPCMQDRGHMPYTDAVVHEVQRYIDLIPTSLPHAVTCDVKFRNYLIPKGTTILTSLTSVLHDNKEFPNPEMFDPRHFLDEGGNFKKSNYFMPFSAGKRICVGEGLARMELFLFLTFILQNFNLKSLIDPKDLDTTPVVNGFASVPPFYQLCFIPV
Procedure, shortened: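 Quantitative high-throughput screen of the Tox21 library using CYP2C19 with proluciferin substrate. Reaction: NADPH regeneration, 37C, 1 h, after 10 min compound preincubation at room temperature. Readout: luminescence.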

[6] = biological target: Voltage-gated inwardly rectifying potassium channel KCNH2 (Homo sapiens) (UniProt Q12809); test: Human Ether-a-go-go-Related Gene (hERG) channel small molecule antagonists: fluorescence cell-based qHTS assay (AID 1671200); conditions: hERG-U2OS cells, FluxOR thallium flux fluorescence; series mostly up to 76.8 µM; also: nearly all actives have a fitted effect of over 50% in size
UniProt Q12809, sequence (Q12809 whole entry, looked up): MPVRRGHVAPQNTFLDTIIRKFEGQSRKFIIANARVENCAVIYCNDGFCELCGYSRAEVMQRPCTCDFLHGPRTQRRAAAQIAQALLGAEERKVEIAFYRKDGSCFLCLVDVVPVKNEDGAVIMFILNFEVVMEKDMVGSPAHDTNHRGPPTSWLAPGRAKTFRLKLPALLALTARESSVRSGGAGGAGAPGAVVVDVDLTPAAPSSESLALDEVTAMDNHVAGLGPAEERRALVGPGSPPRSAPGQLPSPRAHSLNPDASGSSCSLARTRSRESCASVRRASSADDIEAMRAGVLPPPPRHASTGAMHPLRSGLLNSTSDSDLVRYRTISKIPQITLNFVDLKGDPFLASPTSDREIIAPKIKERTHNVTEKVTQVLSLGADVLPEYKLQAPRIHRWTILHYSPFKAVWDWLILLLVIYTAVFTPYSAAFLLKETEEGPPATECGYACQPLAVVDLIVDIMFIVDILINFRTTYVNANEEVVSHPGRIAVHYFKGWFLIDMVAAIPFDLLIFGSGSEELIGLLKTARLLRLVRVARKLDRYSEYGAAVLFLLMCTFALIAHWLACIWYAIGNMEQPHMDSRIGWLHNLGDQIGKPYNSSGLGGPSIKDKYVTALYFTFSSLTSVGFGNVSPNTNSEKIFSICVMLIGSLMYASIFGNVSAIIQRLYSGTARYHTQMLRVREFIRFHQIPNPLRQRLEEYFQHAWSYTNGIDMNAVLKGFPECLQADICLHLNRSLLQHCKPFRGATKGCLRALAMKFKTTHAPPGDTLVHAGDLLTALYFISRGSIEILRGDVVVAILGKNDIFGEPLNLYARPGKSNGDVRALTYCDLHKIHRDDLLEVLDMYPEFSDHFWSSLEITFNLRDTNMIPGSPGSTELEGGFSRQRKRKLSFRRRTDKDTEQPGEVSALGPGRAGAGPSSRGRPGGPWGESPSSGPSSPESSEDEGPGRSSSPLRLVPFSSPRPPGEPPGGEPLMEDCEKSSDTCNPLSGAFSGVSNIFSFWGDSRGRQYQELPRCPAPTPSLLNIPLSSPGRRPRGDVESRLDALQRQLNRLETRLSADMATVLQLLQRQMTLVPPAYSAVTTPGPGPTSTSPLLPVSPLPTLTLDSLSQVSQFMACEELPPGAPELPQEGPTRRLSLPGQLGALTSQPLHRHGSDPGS
Procedure, shortened: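 Channel function was assessed by thallium flux. Cells seeded the previous day and kept at 37 C took up FluxOR II dye over 1 h in the dark at room temperature, then sat another 10 min before stimulation.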
Potency is read from the fitted curve at half-maximal effect; tags tell the direction and shape of the fitted curve.

CCCCCCCCOS(=O)(=O)O
Potency [1]: inconclusive: 24.3 µM [rising, partial curve]
Potency [2]: inactive
Potency [3]: active: 28.3 µM
Potency [4]: inconclusive: 71 µM [inhibitor]

COCCOc1cc2cc(C(=O)NC3CCN(C(C)C)CC3)n(CC(=O)Nc3ccc(Cl)cn3)c2cn1
Potency [1]: inactive
Potency [5]: inconclusive: 78.8 µM [inhibitor, single point]
Potency [3]: inconclusive: 35.2 µM [inhibitor, partial curve, poor fit]
Potency [4]: inconclusive: 24.9 µM [inhibitor, full curve, poor fit]

Cc1c(OCC(F)(F)F)ccnc1CS(=O)c1nc2ccccc2[nH]1 (stereo not drawn)
Potency [1]: inconclusive: 68.6 µM [cytotoxic] and inconclusive: 33.5 µM [cytotoxic, single point]
Potency [2]: active: 2.83 µM and active: 1.23 µM
Potency [6]: inconclusive: 43.6 µM [inhibitor, partial curve]

OCCN1CCNCC1
Potency [1]: inconclusive: 76.2 µM [cytotoxic, single point]
Potency [2]: inconclusive: 70.3 µM [inhibitor, partial curve, poor fit] and inactive
Potency [3]: inactive
Potency [4]: inconclusive: 35.3 µM [inhibitor, partial curve]

Nc1ccc(Oc2ccc(Cl)cc2)cc1
Potency [1]: inconclusive: 67.1 µM [cytotoxic, partial curve, poor fit]
Potency [5]: active: 2.47 µM
Potency [6]: inconclusive: 53.8 µM [inhibitor, single point]
